# Experimental data as given in the RNAGym collection of RNA variant scans (doi:10.7554/elife.90254).
# Read counts are not given, so values of variants with three or more changes are uncertain.
# B1: OR4K15 (parent)
# chain: GUUAACGGUCAUAGGCCAUGGAAACUAGGAGCACCAUUUCGCUGCCAGUGAAGAAAUGAACAAAGAAAAUCUGGGCCAGGCAGGCAUCAAAAGAAAUAGUCUUGCGCUCAACCAGAAAGUCUGUAAUCAUUUUAAGGGUA
# Variants of: B1
# Assay: self-cleavage, relative activity (ratio to wild type); higher = more cleavage; in vitro, sequencing; the parent is a self-cleaving ribozyme
row,Variant,self-cleavage
1,A27G U49C G104A A110U,0.01
2,A52G C101A A116G A125G,0
3,A55U U57C G119U,1.44
4,A5G G7A G137U,0.53
5,U103C C113U A135U,0.05
6,U9A A114C U122C,0.01
7,A111G A116G A117G,0
8,U19C A27G U72C U139C,0.4
9,A51G A110G U122G,0.19
10,A27U A59G U131C,0.71
11,U9C A51U A135G,1.03
12,G7U A51G A54G U87C A111G,0.05
13,A62G A67G U132C,0.13
14,A47G A51G A110U,0.76
15,U2C U49C A55G A95G,1.5
16,U49A A67G G73U U122C,0.11
17,A5U U12A A24G A56G A64U A69G A90G,1.7
18,U2C A24U U49C,1.03
19,A22G A27G A51G A62G A94G,1.24
20,U37C U97A U100C A126G U132A,1.64
21,A30G A62G A66G U103C,0.59

row,Variant,self-cleavage
1,U39C A78U A86G U87A U120A,0.22
2,U19C A51G A69G,0.57
3,U2C A96G U122C,1.68
4,A96G U102C A116G U122C G137A,1.46
5,A13G A55G G123A,1.06
6,A47G A51G U131C,1.6
7,A86G A95G U103C,0.45
8,A23C A47G A64G A78U,0.16
9,G1A A47G U100C U103C A114G A116C A117G,0.03
10,A52U A59G U127C,0.42
11,A5G A24G A56G A64G U97A A110C,0.59
12,C61U A69G U87C,1.21
13,A22G A33G U38A A111G,0.05
14,A67G A86G U102C A118U,0.88
15,C35U A116G A125G U127C,0.02
16,U19C A67G U87C A140G,1.26
17,U37C A64G A118G,1.14
18,A52G A62U G79A,0.18
19,A52G A54G U57A A95G A117G U122G,2.57
20,U2C U9A U19C U57A A116G U131C,0.14
21,A52G U131C U132C,1.53

row,Variant,self-cleavage
1,U9C A52G A96G C128A,0.38
2,U26C A47U A52G A59U U108C A116G,0.02
3,U9C U37C U122C,1.16
4,A54U A66G A116G U124C,0.09
5,A60G A82G A117G A118G,0.19
6,A24G A30G A90U A92U U120C,1.08
7,A60G A78G A117G,0.15
8,G1A U37A A118U,1.07
9,A24U A63G U70C,1.76
10,G7U A30G A91G,1.49
11,U70C A92G U102C G123A,1.39
12,U26C C81U A96U U122C,0.38
13,U39C U70C C77U,1.96
14,A23G A33U U122A,1.43
15,A30G A116U A126G,0.02
16,A78G U102C A118U,0.16
17,A47C U87C U132C,1.28
18,A18U A116G G123A,0.57
19,A30U A56G A68G,0.92
20,A64G A92G U122G,1.64
21,A98U C112U A135G,0.02

row,Variant,self-cleavage
1,A51U A92G A117G A135G,0.31
2,U39C A52G A55G,1
3,A36U A92U C107A,0
4,U49G A68G A90G A140G,1.21
5,G21U U26C U130A,1.6
6,G8A A22G A118G,0.92
7,A24G A92G A95G U108A,0.04
8,A5C U100C U130C,0.56
9,G20A U43C A68G U103C,1.57
10,A11C U49C A140G,1.12
11,A47G U57C U102A U131C,0.7
12,U9C U38C A111G,0.04
13,U2C A4G U26A A110G,0.06
14,A18U A47C U122C,1.41
15,U2C A33U U102G U133C,0.59
16,A68G A118G A135G,1.54
17,U26C A78C A96U A118U,0.15
18,U9C U43A U57A A78G A89G A95G,0.37
19,U2A A11G U57C A78U A126G,0.19
20,U9C A24G A110G,0.11
21,A95G U124C U127C A135G,1.08
